Consider 54 compounds from ChEMBL document CHEMBL4888484, “Replenishing the malaria drug discovery pipeline: Screening and hit evaluation of the MMV Hit Generation Library 1 (HGL1) against asexual blood stage Plasmodium falciparum ,using a nano luciferase reporter read-out” (2022).

In all, about 150,000 compounds went through this assay and about 540 (0.36%) showed an effect of 50% or more. Some of the results follow.

In this assay the test system is Plasmodium falciparum. The experiment in a line: Primary screen in NF54 nanoGlo assay, in single point, at 2uM, 72h; a lower Z score goes with more inhibition. It is filed as functional, Erythrocyte. The note with it: timepoint 72 hour.
`CC(C)c1ccc(Cc2nnc(N3CCOCC3)[nH]c2=O)cc1`: the “% Inhibition” value is -10% and the Z score is given as 1.12.

On to `CN(C)S(=O)(=O)N1CCC(c2nc(C(F)(F)F)c[nH]2)CC1`, for which the “% Inhibition” value came out at 31% and the Z score is -3.54.

For `CN(Cc1ccncc1)C(=O)[C@@H]1CCO[C@H]1c1ccc(Cl)c(F)c1`, the “% Inhibition” value is recorded as -1% and the Z score is on record as 0.11.

For the compound `C=CCn1cnc2c1c(=O)n(C[C@H]1CCCO1)c(=O)n2-c1ccccc1C`, the “% Inhibition” value is given as -9% and the Z score is given as 1.09.

`CNc1cc(-c2cccc(C(=O)NCCN3CCCC[C@@H]3CO)c2)nc(N)n1`: the “% Inhibition” value is 9% and the Z score is given as -1.22.

Regarding `COc1cccc(CN2CCNC(=O)[C@@H]2CC(=O)NCCc2cccc(Cl)c2)c1OC`, the “% Inhibition” value is given as -20% and the Z score stood at 1.81.

Consider `CCCC[C@@H](C(=O)Nc1ccc(Cl)c(OC)c1)N1CCCS1(=O)=O`, for which the “% Inhibition” value is recorded as -34% and the Z score amounted to 3.98.

Take `COc1ccc(S(=O)(=O)N2CCCN(C)c3ccccc32)cc1Cl`: the “% Inhibition” value was -16% and the Z score turned out to be 1.73.

As for `NC(=O)c1ccc(NC(c2ccc(F)cc2F)[C@H]2C[C@@H](O)C2)nc1` (stereo partly drawn), the “% Inhibition” value is recorded as -14% and the Z score was 1.93.

As for `COc1cc(NC(=O)CCN2CCN3CCCC[C@H]3C2)cc(OC)c1`, the “% Inhibition” value is recorded as -2% and the Z score is given as 0.36.

With `COC(=O)C[C@H](c1cccnc1)c1c(Cc2ccc(OC)cc2)[nH][nH]c1=O`, the “% Inhibition” value is listed as -8% and the Z score was found to be 1.04.

`Cc1ccccc1[C@H]1CN(Cc2ccc(N(C)C)nc2)C[C@@H]1C(=O)O`: the “% Inhibition” value is 3% and the Z score is -0.38.

For `OC(CN1CCCC1Cn1cncn1)c1ccc(F)c(F)c1` (stereo not drawn), the “% Inhibition” value worked out at 13% and the Z score is -1.48.

For the compound `Cc1occc1C(=O)NCc1cccnc1N1CCOCC1`, the “% Inhibition” value is -3% and the Z score worked out at 0.51.

On to `Cn1cc(NC(=O)COc2ccc(Cl)cc2C2CCCCC2)cn1`, for which the “% Inhibition” value is recorded as -3% and the Z score worked out at 0.39.

For the compound `CCn1c(N2CCC(C(=O)NCCCN3CCOCC3)CC2)cc(=O)n(C)c1=O`, the “% Inhibition” value is -9% and the Z score is recorded as 1.48.

On to `COc1cc(NC(=O)N(C)Cc2cnc(C)s2)ccc1Cl`, for which the “% Inhibition” value is 5% and the Z score is given as -0.48.

As to `CC(C)c1ccc(S(=O)(=O)N2CC(=O)N(C3CCCC3)C3(CCCCC3)C2)cc1`, the “% Inhibition” value is given as -11% and the Z score turned out to be 1.61.

Regarding `CCCNC(=O)c1ccc(N2CCc3[nH]nc(-c4cccc(F)c4)c3C2)nc1`, the “% Inhibition” value was -2% and the Z score is recorded as 0.37.

For the compound `O=C1C[C@H](c2nc(-c3ccc(N4CCCC4)cc3)no2)CN1c1ccccc1`, the “% Inhibition” value is reported as -5% and the Z score amounted to 0.67.

Take `c1ccc(Cn2cc3ccccc3n2)cc1`: the “% Inhibition” value is listed as -8% and the Z score is given as 1.12.

Take `C=CCN=C(NCCc1cccc(F)c1)NCC1(O)CCOCC1`: the “% Inhibition” value was -2% and the Z score was determined as 0.34.

For `Cc1ccc(Cn2ncc3ccc(C(=O)N[C@@H](C)c4ccc(F)cc4)cc32)cc1`, the “% Inhibition” value is given as -15% and the Z score is 1.36.

In the case of `O=C(Nc1ccccc1C(F)(F)F)C1=C(c2ccccc2)S(=O)(=O)CCO1`, the “% Inhibition” value turned out to be 7% and the Z score is listed as -0.88.

Regarding `FC(F)(F)[C@@H](c1ccccc1)N1CCN(CC2OCCO2)CC1`, the “% Inhibition” value is recorded as -6% and the Z score is 1.02.

In the case of `CO[C@H]1CCN(c2ccc(C(=O)NCc3ccc(-c4ccnn4C)nc3)cc2)C1`, the “% Inhibition” value is listed as 0% and the Z score is listed as -0.02.

On to `Cc1ncc2n1CC[C@H](C(=O)N1CCc3c(Cl)cccc3C1)C2`, for which the “% Inhibition” value is -14% and the Z score is reported as 1.85.

`O=S(=O)(c1ccc(-c2cc(C(F)(F)F)[nH]n2)o1)N1CC[C@H](O)C1`: the “% Inhibition” value is listed as -9% and the Z score is listed as 1.84.

Regarding `Cc1cc(CN2C3CCC2CC(CC(F)F)C3)oc1C(=O)O` (stereo not drawn), the “% Inhibition” value worked out at 0% and the Z score is reported as -0.01.

On to `Clc1ccc(NC2(c3noc(C4CCOCC4)n3)CCC2)cc1`, for which the “% Inhibition” value is reported as -10% and the Z score came to 1.33.

Consider `CC1CCC(C(N)=O)CN1C(=O)c1cc2ccccc2c(=O)[nH]1` (stereo not drawn), for which the “% Inhibition” value is -5% and the Z score is on record as 0.68.

With `COc1ccc(C(=O)C[C@@]2(O)C(=O)N(CN3CCOCC3)c3ccccc32)c(OC)c1`, the “% Inhibition” value amounted to 9% and the Z score is recorded as -1.11.

Turning to `Cc1ccc(NC(=O)c2ccc(Oc3ccc(F)cc3Br)nc2)nc1`, the “% Inhibition” value is 1% and the Z score is -0.27.

In the case of `O=c1[nH]ccc2cc(-c3cc(OC(F)(F)F)ccc3O)ccc12`, the “% Inhibition” value was -1% and the Z score worked out at 0.1.

On to `CN(c1cccnc1)S(=O)(=O)c1ccc(Br)cc1F`, for which the “% Inhibition” value is listed as 4% and the Z score is given as -0.5.

With `Cc1nc2c(c(N3CCCC3)n1)CCN(C(=O)c1cn3ccsc3n1)C2`, the “% Inhibition” value is -17% and the Z score is listed as 3.52.

As to `CCN1[C@H](c2ccc(Cl)cc2)[C@H](CNCc2ccccc2)C[C@]1(C)CO`, the “% Inhibition” value is given as -12% and the Z score is 1.53.

Consider `COc1ccc(OC)c([C@@H](O)CNC(=O)NCc2ccco2)c1`, for which the “% Inhibition” value is reported as -6% and the Z score is 0.95.

In the case of `C[C@H](NC(=O)c1cc2n(n1)CCO2)C(=O)N1Cc2ccccc2C1`, the “% Inhibition” value is given as -11% and the Z score is 1.9.

Consider `C[C@H](Nc1cnc2c(c1)CN(C(=O)OC(C)(C)C)CC2)c1ncco1`, for which the “% Inhibition” value is recorded as 0% and the Z score came to 0.06.

Consider `CN(C)Cc1csc(CN2CCO[C@H](c3cccnc3)C2)c1`, for which the “% Inhibition” value is reported as -7% and the Z score stood at 1.35.

On to `CCO[C@@H](C)C(=O)NCc1cc(C(C)(C)C)n[nH]1`, for which the “% Inhibition” value stood at 6% and the Z score was -1.05.

For `CC[C@H]1COCCN1C(=O)Cc1csc(C)n1`, the “% Inhibition” value is on record as -22% and the Z score is 2.99.

Turning to `COc1cccc(C(=O)N[C@H]2CCN(C3CCCCC3)C2=O)c1F`, the “% Inhibition” value was -8% and the Z score is listed as 1.23.

With `Cc1cccc(-c2nc3[nH]c(CN4CCN(C)CC4)cc(=O)n3n2)c1`, the “% Inhibition” value was determined as 4% and the Z score is given as -0.48.

With `CC(C)c1nnc(CN2CCC(CNC(=O)c3cncnc3)CC2)o1`, the “% Inhibition” value is reported as 5% and the Z score is -0.75.

Regarding `CS(=O)(=O)N(Cc1ccc2c(c1)OCCO2)C1CCCC1`, the “% Inhibition” value was -8% and the Z score worked out at 1.07.

Consider `C[C@@H](Cn1ccnc1-c1ccc(F)cc1F)N1CCN(C)CC1`, for which the “% Inhibition” value came to 8% and the Z score is -0.99.

Turning to `N#CC1(c2ccc(Cl)cc2)Cc2ccccc2C1`, the “% Inhibition” value is recorded as 0% and the Z score is -0.04.

Consider `CCc1onc(C)c1CN1CCn2c(Cc3ccccc3)nnc2C1`, for which the “% Inhibition” value is 6% and the Z score is -0.74.

With `CCCCS(=O)(=O)NCCn1cc(-c2ccoc2)cn1`, the “% Inhibition” value is on record as -7% and the Z score turned out to be 1.31.

Turning to `C[C@@](CO)(NC(=O)NCC1(c2ccccc2)CC1)C1CC1`, the “% Inhibition” value is listed as -4% and the Z score is 0.57.

`O=C(CCn1cncn1)NCc1ccc(Cl)s1`: the “% Inhibition” value is reported as -10% and the Z score is given as 1.

For `COc1cnc(CN(C)[C@@H](C)c2ccccc2)cc1O`, the “% Inhibition” value is reported as -10% and the Z score is on record as 1.35.
